Assay results: the supplement of paper PMC11417369
± gives the standard deviation of the averaged measurements. The list shows a part of the results.

The sequences below were run on PfAP2-EXP AP2 domain (GST-tagged) (assay: gcPBM binding intensity (ln(normalized median fluorescence intensity)); higher = stronger DNA binding).
In short: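 In this array assay, P. falciparum DNA-binding domains with a GST tag, expressed in E. coli, were applied for 1 h to primer-extended double-stranded 36-bp intergenic genomic probes and negative controls on an Agilent 4 × 180k array. Bound protein was visualised with Alexa488 anti-GST antibody at 488 nm. Binding intensity is the highest Masliner-normalised natural-log median intensity across replicate spots of either probe orientation.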

| Sequence | gcPBM binding intensity (ln) |
| --- | --- |
| TTTCTTTTTTCATTTACACACAATAATATAAGAATA [CACACA_site3164] | 8.58 ± 0.37 |
| TACACAAATATATATATATATATATATATATATATA [XGTACX_negctrl_site305] | 10.2 ± 0.14 |
| TATTACACATATTATACACACATATATTATATATAT [CACACA_site4951] | 8.69 ± 0.25 |
| TAACATATTTTTAATACACACTTAAAAAAGTACTTA [CACACA_site4875] | 8.31 ± 0.34 |
| TTAAATTGAATTAGTTAACACACAACTTTTATTTCA [CACACA_site8921] | 8.17 ± 0.38 |
| TCTTCATACGACTAAAAAACATTAGACTGATAAAAA [CACACA_negctrl_site628] | 8.38 ± 0.35 |
| TTGTGTTTTACATATACATGCAAATTTTTTTTTTTA [TGCATGCA_site303] | 8.52 ± 0.17 |
| TAAATCATTTCATGGCATTTACACAAAATTTTTTAA [CACACA_negctrl_site1260] | 8.38 ± 0.44 |
| TATTTATTTATATAAACACACATAAATATAAATATA [CACACA_site6653] | 8.3 ± 0.47 |
| TATATATAATATTATACACACATATATGCATAATAT [CACACA_site54] | 8.77 ± 0.38 |
| TATAGCATAAATATGTGTACATATTTATATGATATT [XGTACX_site6333] | 8.37 ± 0.28 |
| ATATATATTTAAAAAAGTACAGAAGAAAATAACCCA [XGTACX_site642] | 9.03 ± 0.52 |
| TGAAACCATAAAGAATGTACACAGCGGTATAAGTTA [XGTACX_site674] | 8.8 ± 0.44 |
| AATAAAATAAGAAGCACACAAATATTATATATAAAA [CACACA_site3980] | 8.78 ± 0.42 |
| TTTTAAATAATACATACATGCATATATACACATATA [TGCATGCA_site8] | 8.56 ± 0.39 |
| TTAATATATTTAAATATATATAAAATATATAATATG [CACACA_negctrl_site880] | 8.12 ± 0.3 |
| TTCTTTTCTTCTACATGTACAAATATTATATATATA [XGTACX_site2996] | 9.29 ± 0.46 |
| TTTTGGAATTTTAGCTGTACTTTTCCTATTTTGTAT [XGTACX_site7679] | 8.73 ± 0.43 |
| ATTATTATTAATAGTACACACTATGGCATTTCAATA [CACACA_site5388] | 8.58 ± 0.28 |

| Sequence | gcPBM binding intensity (ln) |
| --- | --- |
| TATTTCACAACTTGTCGTACATTAATTGTATTATTT [XGTACX_site997] | 8.8 ± 0.38 |
| TATATAACTGTCTTCACACACACATATAAATAAATA [CACACA_site7317] | 8.54 ± 0.43 |
| ATCTTTCATCTACCAAGTACAAATTACTTTTTTTTT [XGTACX_site7001] | 8.81 ± 0.38 |
| TTAGGTGTATATAATTGTACATTTTGGAAATTATAC [XGTACX_site5492] | 8.43 ± 0.27 |
| TCTTATTTAAAAATAGCACACATTATGTATATATAT [CACACA_site2822] | 8.64 ± 0.13 |
| AGCTCGGAAAAATTAGCATGCAAAAAAAAAAAAAAA [TGCATGCA_site658] | 8.54 ± 0.23 |
| TGCTTATATATACGTGCACACATATATATAAGATAT [CACACA_site8516] | 9.03 ± 0.33 |
| TATTTTAATTATAAATTTAAAAAAAAAAAGAAAAAA [CACACA_negctrl_site1674] | 8.21 ± 0.51 |
| CTGGAGGATGAAAAAAGTACAAAAGGAGGAAATGTA [XGTACX_site8846] | 8.86 ± 0.63 |
| AAAACAAATATATTAACACACAAACATATAAACAAA [CACACA_site6052] | 8.77 ± 0.53 |
| AGCTCATGCAGGTGTACACAAAAAGAAAAAAAATAA [CACACA_site4828] | 8.99 ± 0.37 |
| ATGTCCTCAATGTTTACACACTCTTTTATATAAGTT [CACACA_site1460] | 9.05 ± 0.31 |
| CCCCATATAATGAACACACACACTCCTCATAATTAA [CACACA_site628] | 8.96 ± 0.3 |
| ATAAATAATGTTGACACACACAATAATCTTATTATG [CACACA_site3593] | 8.4 ± 0.44 |
| TATTAATTTATATCAACACACAAAATCAATATACTT [CACACA_site1757] | 8.36 ± 0.39 |
| CGAAATATTATGTACGCACACACATTTTTAATATAT [CACACA_site3852] | 8.63 ± 0.23 |
| AAGGAATAATATAAAACACACACATAAATATAAATA [CACACA_site9115] | 8.68 ± 0.26 |
| ATATAGATCAGACACACACACATGTTTTAAAACTAT [CACACA_site6186] | 8.86 ± 0.56 |
| AACATAAATATATATAGTACATATATATATATTCAA [XGTACX_site7287] | 8.31 ± 0.25 |

| Sequence | gcPBM binding intensity (ln) |
| --- | --- |
| TTCTATATTTTAGCTGATAATATTATGAGCTTCACT [XGTACX_negctrl_site427] | 8.57 ± 0.32 |
| TCTTTAATGAACAAATGTACAAGAACAATACCCGCA [XGTACX_site2047] | 8.97 ± 0.47 |
| CTTTAACCTTTTTATTGTACTTTTAATATTTTAAAA [XGTACX_site4457] | 8.73 ± 0.38 |
| AATATATGGTATAATTGTACAAAAAAAAAAAAAAAA [XGTACX_site1476] | 8.35 ± 0.56 |
| GTGAAATGGAAAAAAAGTACAGATTACATAAGTATT [XGTACX_site6355] | 8.64 ± 0.42 |
| TTTTTTATTTTAATGTATTATTTTTATGTAATATAT [GTGCAC_negctrl_site391] | 8.29 ± 0.33 |
| GATATGATTACCTTATGGTGTTTTTGATGGATAGTT [CACACA_negctrl_site1504] | 8.62 ± 0.5 |
| TTTTATTATTTATATACACACTTGCTGAAATGTTAT [CACACA_site5919] | 8.59 ± 0.47 |
| TATAATAATAATGATAGTACGTATGAGTTCAAAAAA [XGTACX_site608] | 8.55 ± 0.42 |
| TATATACAAATATGCTGTACAAAAAAAAAAAAAAAA [XGTACX_site4732] | 8.22 ± 0.42 |
| CGGTATTTTTTAATTTGTACGCATATACAATAATTA [XGTACX_site8603] | 8.61 ± 0.45 |
| AATTGTTCGATATATGCACACAGTTTTGTTATTTTT [CACACA_site1615] | 8.74 ± 0.3 |
| TATTTATATTTATATACACACTATATAACTCAAACA [CACACA_site6611] | 8.36 ± 0.39 |
| CTAGCAAATACATACACACACACACGGATACCTATA [CACACA_site7609] | 8.76 ± 0.58 |
| TATATAACTTTATTTTTCTTTACTTATTTTATTTTA [GTGCAC_negctrl_site66] | 8.47 ± 0.42 |
| ATATATATATATATATGTACATATTATTAATAATAT [XGTACX_site6667] | 10.2 ± 0.35 |
| AAAGAAAAAAAAAAAAGTACATAAATATAAAAAGAA [XGTACX_site6753] | 8.88 ± 0.43 |
| TTTTTTAAAATATATATAATGAATTTTTTTTTTTTT [CACACA_negctrl_site1577] | 7.8 ± 0.51 |
